Test results taken from the supplement of paper PMC12217912.
This is one part of the list. Sequences were assembled here from the parent chain. Inactive controls read about 0.05.

B1: TEV protease; numbered along this chain (parent)
chain: MGESLFKGPRDYNPISSSICHLTNESDGHTTSLYGIGFGPFIITNKHLFRRNNGTLVVQSLHGVFKVKDTTTLQQHLVDGRDMIIIRMPKDFPPFPQKLKFREPQREERICLVTTNFQTKSMSSMVSDTSCTFPSGDGIFWKHWIQTKDGQCGSPLVSTRDGFIVGIHSASNFTNTNNYFTSVPKNFMELLTNQEAQQWVSGWRLNADSVLWGGHKVFMVKPEEPFQPVKEATQL

Variants of: B1
Test: raw area under fraction-flipped curve 0-4 h after induction (AUC4h, not background-subtracted), DNA-recorder readout of cleavage of the substrate (dimensionless); higher = more cleavage of the substrate by the protease variant
Details: temperature: 34 °C; time window: 0-4 h after rhamnose induction
Method: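 In vivo DNA recorder in E. coli TOP10(DE3) ΔrhaA at 34 °C. Each TEVp single-site mutant (parent TEVp 0) is paired with a single-site variant of the 7-mer TEVs (canonical ENLYFQ|S). The substrate sits between flexible linkers in a Bxb1-sfGFP-TEVs-SsrA fusion, so cleavage stabilises Bxb1 and speeds flipping of a recombination array, read by NGS. The value is the raw area under the fraction-flipped curve over 0-4 h after rhamnose induction (AUC4h), with ≥20 reads per time point. It is not background-subtracted; inactive controls average about 0.047.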
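Further: Bxb1 expression induced with 0.2% (w/v) L-rhamnose at OD600 near 0.5, cultures sampled hourly, flipped fraction per protease–substrate barcode pair counted by paired-end Illumina sequencing.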

| Variant | area with substrate ENLYFAS | area with substrate ENLYFDS | area with substrate ENLYFES | area with substrate ENLYFFS | area with substrate ENLYFGS | area with substrate ENLYFHS | area with substrate ENLYFIS | area with substrate ENLYFKS | area with substrate ENLYFLS | area with substrate ENLYFMS | area with substrate ENLYFNS | area with substrate ENLYFPS | area with substrate ENLYFRS | area with substrate ENLYFSS | area with substrate ENLYFTS | area with substrate ENLYFVS | area with substrate ENLYFWS | area with substrate ENLYFCS | area with substrate ENLYFYS |
| --- | --- | --- | --- | --- | --- | --- | --- | --- | --- | --- | --- | --- | --- | --- | --- | --- | --- | --- | --- |
| D161W | 0.0488 | 0.0514 | 0.0514 | 0.0595 | 0.0537 | 0.0452 | 0.0503 | 0.0444 | 0.0572 | 0.0525 | 0.0512 | 0.0449 | 0.0568 | 0.0468 | 0.0452 | 0.0273 | 0.0581 | – | – |
| V220M | 0.0595 | 0.0629 | 0.0837 | 0.0327 | 0.0643 | 0.0657 | 0.0515 | – | 0.0689 | 0.0822 | – | 0.0674 | 0.0599 | 0.0627 | – | – | – | – | – |
| V220W | 0.0776 | – | 0.0613 | 0.0634 | – | – | 0.0564 | 0.0615 | 0.0648 | 0.0612 | 0.0679 | 0.0561 | 0.0458 | 0.0605 | 0.0591 | 0.0612 | – | 0.0676 | 0.0409 |
| R204L | 0.0479 | 0.0545 | 0.0699 | 0.0633 | 0.0563 | 0.0542 | 0.054 | 0.0584 | 0.0555 | 0.0611 | 0.0573 | 0.0591 | 0.0728 | 0.0489 | 0.0949 | 0.0467 | 0.064 | 0.0518 | 0.054 |
| R204F | 0.066 | 0.0558 | 0.074 | 0.0852 | 0.0641 | 0.0613 | 0.0544 | 0.0589 | 0.0638 | 0.0676 | 0.0637 | 0.0642 | 0.0609 | 0.0482 | 0.0587 | 0.0646 | 0.0529 | 0.0617 | 0.057 |
| V165T | 0.0444 | – | 0.0514 | 0.0429 | – | 0.0585 | 0.0418 | – | – | 0.0549 | 0.0585 | 0.0552 | 0.0761 | 0.0521 | 0.0443 | – | 0.0406 | 0.0623 | – |
| M219S | 0.0534 | 0.0709 | 0.0525 | 0.0733 | 0.0783 | 0.0584 | 0.0553 | 0.0642 | 0.0576 | 0.0649 | 0.0494 | 0.0614 | 0.0621 | 0.0663 | 0.0496 | 0.0576 | 0.0635 | 0.058 | 0.0546 |
| V157D | 0.0522 | – | 0.049 | 0.0622 | – | 0.0501 | 0.043 | 0.0477 | 0.0436 | 0.0391 | 0.0443 | 0.0848 | 0.0524 | 0.0491 | – | 0.0506 | 0.0448 | – | 0.061 |
| V157L | 0.0641 | – | 0.058 | 0.0604 | – | 0.0527 | 0.0512 | 0.0671 | 0.0537 | 0.0518 | – | 0.0549 | 0.0472 | 0.0541 | 0.049 | 0.0565 | 0.0664 | 0.054 | – |
| V157S | 0.0545 | – | 0.0523 | 0.0686 | – | 0.058 | 0.0566 | – | – | – | 0.0574 | 0.0614 | 0.0519 | 0.0692 | – | 0.0538 | 0.0769 | – | 0.0449 |
| S169W | 0.0656 | – | 0.0642 | – | – | 0.0469 | 0.0524 | 0.0646 | – | – | – | 0.065 | – | – | – | 0.0849 | – | 0.0622 | 0.0565 |
| S169M | 0.0604 | – | 0.0669 | 0.074 | – | – | 0.0573 | – | – | 0.0532 | 0.0611 | 0.0583 | 0.04 | 0.0539 | 0.063 | 0.0646 | – | 0.0714 | 0.0554 |
| N177L | 0.0604 | 0.0584 | 0.0776 | 0.0757 | – | – | 0.0551 | – | – | 0.0613 | 0.0922 | 0.0436 | 0.0515 | 0.0556 | – | – | – | 0.0545 | – |
| N177S | 0.054 | 0.0516 | 0.0515 | 0.0641 | 0.0211 | 0.051 | 0.0454 | 0.047 | 0.0505 | 0.053 | 0.0468 | 0.044 | 0.0406 | – | 0.048 | 0.0398 | 0.0413 | 0.0303 | 0.0434 |
| S154H | 0.077 | 0.0519 | 0.0627 | 0.0647 | – | – | 0.0544 | – | – | 0.0624 | – | 0.056 | – | – | 0.0652 | 0.0604 | 0.0513 | – | 0.0497 |
| L205M | 0.0597 | 0.0191 | 0.0335 | 0.0627 | 0.049 | 0.0624 | 0.0568 | 0.0618 | 0.0653 | 0.0873 | 0.076 | 0.0541 | 0.0512 | 0.0639 | 0.0587 | 0.0454 | 0.0555 | 0.0623 | 0.0541 |
| L205G | 0.0514 | 0.0399 | 0.0555 | 0.0687 | 0.0419 | – | 0.0542 | – | 0.0668 | 0.067 | 0.0557 | 0.0545 | – | 0.0675 | 0.0665 | – | 0.0592 | – | – |
| L191K | 0.055 | 0.0482 | 0.044 | 0.0639 | 0.0634 | 0.0601 | 0.0545 | 0.0637 | 0.0586 | 0.0647 | 0.039 | 0.0448 | 0.0541 | – | 0.0542 | – | 0.0482 | 0.0488 | 0.0461 |
| L191A | 0.0406 | – | 0.0525 | 0.067 | – | – | 0.0579 | 0.0343 | – | 0.0565 | – | 0.0376 | 0.0539 | – | 0.0625 | – | – | 0.0497 | – |
| L191F | 0.0594 | 0.0598 | 0.0701 | 0.0657 | – | – | 0.0515 | 0.0699 | 0.0378 | 0.0684 | 0.0645 | 0.0413 | 0.0557 | 0.0574 | 0.0589 | 0.0869 | 0.0409 | 0.0589 | 0.0612 |
| L191Y | 0.0541 | – | 0.0605 | 0.046 | 0.0624 | 0.0464 | 0.0515 | – | – | 0.0567 | – | 0.0612 | – | – | 0.0501 | 0.0441 | 0.079 | – | 0.027 |
| G166D | 0.0403 | 0.055 | 0.0572 | 0.0679 | 0.0465 | 0.0429 | 0.0475 | 0.0519 | 0.052 | 0.0511 | 0.052 | 0.0316 | 0.0513 | 0.053 | 0.029 | 0.0551 | 0.0436 | 0.0699 | 0.0548 |
| G166A | 0.0466 | 0.0566 | 0.0411 | 0.0592 | – | 0.0331 | 0.045 | 0.0562 | – | 0.0558 | 0.0494 | 0.0537 | 0.0518 | 0.0494 | 0.0514 | 0.0551 | 0.0494 | – | 0.0565 |
| H215C | 0.0698 | – | – | 0.0682 | – | – | 0.053 | – | – | 0.0511 | – | 0.0687 | 0.0522 | – | – | – | 0.051 | 0.0667 | 0.0395 |
